# Laboratory results reported in ChEMBL document CHEMBL4888484, “Replenishing the malaria drug discovery pipeline: Screening and hit evaluation of the MMV Hit Generation Library 1 (HGL1) against asexual blood stage Plasmodium falciparum ,using a nano luciferase reporter read-out” (2022).
# Out of some 150,000 compounds screened, about 540 (0.36%) showed an effect of 50% or more. The list shows a part of the results.
# Test system: Plasmodium falciparum
# Experiment: Primary screen in NF54 nanoGlo assay, in single point, at 2uM, 72h; a lower Z score goes with more inhibition
# Type: functional, Erythrocyte
# Details: timepoint 72 hour
SMILES,% Inhibition,Z score
O=C(CN1CCC(F)(F)[C@@H](CO)C1)N1CCC(Cc2ccccc2)CC1,0%,-0.02
CCn1nc(C)c(-c2nc([C@H](O)c3ccccc3)nn2CCO)c1C,10%,-1.84
Cc1c(C)c(C(=O)NCc2ccco2)n(Cc2cccc(F)c2)c1C,-3%,0.39
CC(C)C(=O)N1C[C@H](O)C[C@H]1c1nnc2n1CCN(C(=O)c1cc(F)ccc1F)C2,-5%,0.54
CC(C)CN1CCCCC1C(=O)NC1CCCc2[nH]c(=O)ccc21 (centres undefined),-12%,1.61
CN(C)C(=O)c1ccc(CNC(=O)CCCn2cccn2)o1,-5%,0.65
Cc1cccc(Nc2nc(-c3ccccc3)ncc2C(=O)N2CCC(C)CC2)c1,0%,-0.04
CCC(C)C(NC(=O)NCc1nnc(N(C)C)[nH]1)C(F)(F)F (centres undefined),1%,-0.09
Cc1nnsc1C(=O)N1C[C@H]2CC[C@@H](C1)N(Cc1c(C)noc1C)C2=O,1%,-0.2
O=C(c1ccccc1)c1n[nH]c(C(=O)c2ccc(Br)cc2)c1O,-7%,0.81
O=C(Cc1ccc(Cl)cc1)Nc1c[nH]c(=O)[nH]c1=O,-10%,1.69
O=C(CCC(=O)c1ccc2c(c1)OCCCO2)Nc1ccc(F)cc1,-9%,0.91
CCc1cccc(C)c1N[C@@H](C)COC,-6%,0.84
CCc1ccc(C(=O)N2CCCCCCC2)s1,-7%,1.07
CC(On1nnc2ccc(Cl)cc21)C(=O)N1c2ccccc2CC1C (centres undefined),-1%,0.13
Cc1nc([C@H](C)NC(=O)Nc2cc(-c3nnco3)ccc2C)cs1,-4%,0.47
COc1ccc(F)c(F)c1C(=O)N[C@H]1CCN(CC(=O)N(C)C)C[C@@H]1O,-6%,1.13
CCCO[C@H]1CCCN(c2nc(-c3cccnc3)nc3c2CNC3)C1,2%,-0.3
CC(=O)Oc1c(-c2ccc(NC(=O)c3ccccc3Cl)cc2)c(CC(C)C)nn1-c1ccc(F)cc1,-4%,0.51
COc1ccc(-c2cnc(C(=O)N3CCCc4ccccc43)o2)cc1,8%,-1.06
Clc1cccc(Cc2nc([C@@H]3COCCN3)no2)c1,-9%,1.32

SMILES,% Inhibition,Z score
Cc1ccccc1N1CC[C@H](CNC(=O)Cn2ccccc2=O)C1,-1%,0.15
COc1ccc(S(=O)(=O)N2CCOCC2)cc1NC(=O)CN1CCC[C@H]1c1cccs1,-11%,1.78
O=C(Nc1ccc2c(c1)N(C(=O)c1ccccc1)CCC2)c1ccccc1,-15%,1.48
NC(=O)c1ccccc1NC(=O)[C@@H]1COCC(=O)N1Cc1ccccc1,-7%,1.35
CCc1[nH]nc(-c2cccc(F)c2)c1NC(=O)c1ccc2c(c1)OCO2,-10%,1.5
CCc1ccc(S(=O)(=O)N2CCn3c(nnc3[C@H]3CCN(C(C)C)C3)C2)cc1,31%,-0.95
CN1C(=O)c2cccnc2O[C@H]2CN(C(=O)COc3ccccc3)C[C@H]21,-3%,0.45
CC1CC(C)CN(S(=O)(=O)NCC2CCCS2(=O)=O)C1 (centres undefined),-7%,0.88
Cc1cc(S(N)(=O)=O)c(Cl)cc1N1CCOCC1,1%,-0.07
CC[C@H](C)[C@H](NC(=O)c1n[nH]c2c1CCC2)c1nc2ccccc2[nH]1,-8%,0.97
CC1(C)CCN(C(=O)Nc2ccc(CCS(C)(=O)=O)cc2)CC1,28%,-3.19
Cc1cnc(C(=O)N2CCC(N3C[C@H](Oc4ccccc4)[C@@H]3c3ccncc3)CC2)cn1,2%,-0.24
CCn1cc(CN(C)Cc2cccc3cnccc23)cc1C#N,-10%,0.96
CC(=O)Cn1nc(C)c(-c2cnc3ccccc3n2)c1C,-4%,0.82
CCOC(=O)[C@@]1(NC(C)=O)Cc2ccccc2NC1=O,0%,0
O=C(CCC1CCC(C2OCCO2)O1)N1CC2CCC1C(CO)C2 (centres undefined),-4%,0.9
CCOc1cc(C(F)(F)F)cc(NC(C)=O)n1,-1%,0.13
CC(C)(C)OC(=O)NCCN(CCO)C(=O)Cc1cc(Cl)ccc1Cl,-1%,0.09
COc1ccc([C@@H](C)CN(C)CCCO)cc1,-14%,1.69
CC(CCNC(=O)N(C)C(C)C(C)S(C)(=O)=O)c1ccccc1 (centres undefined),-11%,1.09
Cc1nnc(CN(C)Cc2ccc(Br)o2)o1,-9%,0.88
